Self-cleavage data for 167 variants are collected here from the RNAGym collection of RNA variant scans (doi:10.7554/elife.90254).

The source gives no read counts; variants with many changes may rest on few reads.

The chains are these.
B1: LINE1-mini (parent)
chain: GGCAGAGCUCAACACAGCGUGGCAAAGUGGCUGUGGCUAGACUGCC

The variants in this series derive from B1. Briefly: self-cleavage, relative activity (ratio to wild type); higher = more cleavage; in vitro, sequencing; the parent is a self-cleaving ribozyme.
In the case of A4C G7C A16C G29C G40A, the self-cleavage came to 0.02.
In the case of G2C C18A U20C it was 0.02; in that of G21A G22U G30C C37U, 0.2.
In the case of A24G A25U A26G U28C it was 0.31.
As for C3U G7A A26C G27U, the self-cleavage was found to be 0.12.
For G7C C8A C13U A26C C42A, the self-cleavage is 0.21.
In the case of C8U C13U G27U C31U G33A it was 0.17; in that of C8A A26C A41C, 0.33; in that of U43A G44U C46U, 0.13.
As to G22C A24C U32A A39G C46U, the self-cleavage is 0.09.
As to C31A U43G C45A, the self-cleavage came to 0.
As for A4G U20G G22U C23U C31A A39G, the figure is 0.12; as for U9G G21C G33C C46U, 0.03.
As for A11U G21A U38A C45U, the figure is 0.04; as for G5U C10G U32G C42A, 0.01.
On to G1U C8A C18A U28A G29U C31G, for which the self-cleavage was 0.01.
Consider A12G G36U G40U, for which the self-cleavage was found to be 0.11.
In the case of C3G A14G G36C, the self-cleavage was 0.08.
With G1U G7U U28C G29U, the self-cleavage worked out at 0.02.
In the case of G17C C18A G21A G33U it was 0.02; in that of C8U C18G U28G C31A C45G, 0.07; in that of A4C U28G U32C, 0.04.
As to A24C G30U C37A, the self-cleavage came out at 0.04.
U28A C37U G40U: the self-cleavage turned out to be 0.02.
As for A16C G21U C37A A39U, the figure is 0.05; as for C8A G29U G40U, 0.14; as for A6U G7C A16G C23A, 0.12.
Turning to C3A G22U A25G C42U, the self-cleavage amounted to 0.06.
As for G5U C10A G19A G44C, the figure is 0.01; as for A11C C13A C37U, 0.05; as for G7C C10U A12C C46G, 0.01.
As for A6C G19A C31A, the figure is 0.21.
In the case of U9A C37U U43A it was 0.01; in that of C10U G19U A39G C45U, 0.1; in that of U9G G21U C45U C46G, 0.13.
On to C3G G36U G40C, for which the self-cleavage came to 0.09.
U9G A24U G27C C46G: the self-cleavage came out at 0.07.
For the variant G7C C8U C15G U43A, the self-cleavage stood at 0.38.
In the case of C15A U32C C45A, the self-cleavage came to 0.08.
As for C13U G21A C23U, the self-cleavage was found to be 0.41.
As to A11U G21C G44C C45G, the self-cleavage came out at 0.02.
With A12U G27A G33C, the self-cleavage stood at 0.01.
On to G1A C3U A11G C23A C37A C45A, for which the self-cleavage is 0.02.
For G1A C3A C8A C13A C42A, the self-cleavage stood at 1.18.
As to C13U C15A G29C G40A C46A, the self-cleavage was 0.01.
For the variant C8U G17U G35C, the self-cleavage was determined as 0.18.
Consider G7A C13U U32A G33C, for which the self-cleavage is 0.02.
As to G27C C31A A39U G44U, the self-cleavage came to 0.01.
With U9G C13G A39U, the self-cleavage is 0.11.
In the case of G5C C13A G19A A39G it was 0.06; in that of C8U C10U A11C, 0.06; in that of G5C U9C C23G G35A A39U G40U, 0.02.
In the case of G2A C3A G19U C42G it was 0.38; in that of G1U G17A A41G, 0.02; in that of G22C U28A G30U, 0.12.
In the case of C18G C23A G40C C42A G44A it was 0.05; in that of A6U C13A G44U C46U, 0.2.
For G2C U20A G36A U38C G44A, the self-cleavage is 0.02.
As for G22A C23U A25G G40U, the figure is 0.15; as for C23A G27U U28C, 0.37.
As for C8A C13A C18G A25C U28G, the figure is 0.16; as for G30A C42A G44U, 0.03.
In the case of G5A G33C U38C it was 0.05; in that of A6C C31A C45A, 0.04; in that of A6G G17A G30A G35U, 0.04.
For G33C A39C G44U, the self-cleavage came out at 0.04.
As for A6G C10U A41C, the figure is 0.02; as for A16G U20C C42A, 0.04; as for G5A G35U C37U C45G, 0.04.
In the case of C18G U32A A39G C46A it was 0; in that of C3U C15G A16C C18G C31A, 0.05; in that of C3A A14G G22C C42A C45A, 0.48.
As for G1U C3U G19U, the self-cleavage was 0.13.
Take U20G G27U G35A: the self-cleavage worked out at 0.05.
G5A C13G U20A G30A: the self-cleavage amounted to 0.04.
G29A G33A C46G: the self-cleavage was 0.11.
As for G1C A16U G17C A25U G29C G33A C37A G44U C46G, the self-cleavage stood at 0.
In the case of C10G A11G A12C G22A A24U it was 0.02.
As for G1A A6G C13G U20G C31U A41C C42G G44C, the figure is 0.02; as for A11G U20G U32C G40C, 0.01.
As for A11C A16G G22A U32C, the figure is 0.01; as for C3U A4U G27C C37G, 0.04.
As to G7C C8G C18A A26G G35A U43C, the self-cleavage stood at 0.03.
As for G35C C37U G44C, the self-cleavage worked out at 0.04.
Regarding G33A G40A G44C C46U, the self-cleavage stood at 0.02.
As for C15G G19U A26C G27U G36C G40U, the figure is 0; as for C15G G19C A25C U28C G36C A39G, 0.02.
As for G1A U9A C45G, the figure is 0.53; as for A4C C10U A24C G36A C42U, 0.02; as for C3A A16G G17U G27A U32G U38A G40C, 0.07.
G2U G7A U9A: the self-cleavage turned out to be 0.19.
As for C10A A14C G44C, the figure is 0.02.
In the case of G1U G27U G33C it was 0.03; in that of C15G U20A A26U G33U G44A, 0.01; in that of A4C C13G G40C, 0.05.
As for C15A G19U U20G A26C, the figure is 0.12; as for C8A A16C G22U A24C C37A, 0.06.
On to G2U C8U G17U G19U, for which the self-cleavage came to 0.03.
C10A A12C C18G: the self-cleavage was determined as 0.
In the case of C8A G19A A26C it was 0.06; in that of A4C C8G C23G C42U, 0.03; in that of G2A C10A G21C A25U C45U, 0.02.
As for G2U A12C C13U A39U C46A, the figure is 0.01; as for G2U A12G A39G C46G, 0.01; as for G19U C23U G40C G44A, 0.12.
As for A4G A16C C18A G21C G35A U38C, the figure is 0.03.
For the variant C18A G35A C45A, the self-cleavage amounted to 0.08.
On to G2C G7C A16G C31A U32A, for which the self-cleavage was 0.04.
In the case of U9C U28G G30U, the self-cleavage amounted to 0.01.
In the case of G27C G29U G35A C37A it was 0.07.
As for A26U G29A C42U, the figure is 0.17; as for C10A A11U U20C G22U G33U, 0.02.
C13U G30A A39U: the self-cleavage stood at 0.74.
Take C3G G29U U32C A39C G44A: the self-cleavage amounted to 0.05.
As for C3G A6U U20C G22C A24G G33C A39G, the figure is 0.11.
As for A12U A14C G21C, the figure is 0.05; as for U9G G17U U20C G30U, 0.02; as for G1C A11U G30U, 0.01.
In the case of C3A C13A G17U it was 0.26; in that of C8U U9C G21A G36A C46A, 0.
Consider G2A G5C C13A G27U, for which the self-cleavage was 0.03.
For G17U G35U C45G, the self-cleavage came to 0.03.
As for G2C A4C G33C U34A A39C, the figure is 0.01.
With C15U G17A G19A U20A A24U A41U, the self-cleavage is 0.06.
As for A4C U20G G29U, the figure is 0.05; as for A25G G27U U38C, 0.07; as for A12U A26U G36U, 0.05.
As for A14U G27A G35C G44A, the figure is 0.02; as for G33A C45G C46G, 0.05; as for C3G C10G A12G, 0.03.
As for C18U C23A G35A, the figure is 0.06; as for A6G C8G C18G G29A G30C, 0.65.
In the case of A11C G29C U34A G36A C42G, the self-cleavage was 0.02.
In the case of A4C G17A A25G it was 0.32.
On to G2U G5U C18U G21C G33C, for which the self-cleavage worked out at 0.02.
For A12C C23A C37U, the self-cleavage amounted to 0.
In the case of A12G U20G A26G it was 0.28.
In the case of G1A G2C G17U C18U it was 0.03; in that of U9A G22A A39U C45U, 0.04.
In the case of A12U U28A C37A U43A C46U, the self-cleavage was 0.01.
In the case of U20A U28G G35A it was 0.03; in that of G1A G2C G35A G44U, 0.28.
As for G2C A16G C18A C45G, the figure is 0.01; as for A14G G19U C31U U38G, 0.
In the case of C10U A16C C18A A39U A41U it was 0.04; in that of G19C G22A C23A G30A, 2.77; in that of G19A G29A C37U, 0.06.
Consider G1U G17C C23A G33C G44A, for which the self-cleavage came to 0.08.
For G7C G21A U32G, the self-cleavage worked out at 0.42.
Turning to A6U G30A C31U U38G, the self-cleavage worked out at 0.02.
As for A4U C8U C31G A39G, the figure is 0.2; as for G2A G7C U20C G40C, 0.02; as for C13U A24C U28A U34C, 0.06.
With C23A G29U G33A, the self-cleavage was found to be 0.54.
As for C3A A12U C15A G29U, the figure is 0.31; as for G7A C15A G27U, 0.14; as for G1U C18G G21U C23A, 0.27.
As for C3U G19C C37U, the figure is 0.03; as for C18A C23U G33C, 0.01.
On to U28A G35U C37A A41C, for which the self-cleavage was determined as 0.02.
In the case of G2A G5A A41U G44A it was 0.11.
As for C23U G35U G36A, the figure is 0.29; as for A11U C42U C46U, 0.
In the case of C3A G5U G36U it was 0.17.
For the variant G2C C8G U9G, the self-cleavage is 0.07.
For the variant G2U A12C C15A C23U G40C, the self-cleavage was 0.02.
In the case of A24G A25C C31A, the self-cleavage amounted to 0.07.
